Results are given in words; binding and its absence hold for the method and conditions named. For some assays here: In cells and extracts the contact can be indirect. Some entries that bind do so weakly or less than the wild type. Sequences can lack the tags named with a protein.

The record followed here is publication PMC4624954, “Delineating the Tes Interaction Site in Zyxin and Studying Cellular Effects of Its Disruption” (PLoS ONE, 2015).

One experiment has as its target T1, Zyx NT-mito (human) (UniProt Q15942).
T1 sequence: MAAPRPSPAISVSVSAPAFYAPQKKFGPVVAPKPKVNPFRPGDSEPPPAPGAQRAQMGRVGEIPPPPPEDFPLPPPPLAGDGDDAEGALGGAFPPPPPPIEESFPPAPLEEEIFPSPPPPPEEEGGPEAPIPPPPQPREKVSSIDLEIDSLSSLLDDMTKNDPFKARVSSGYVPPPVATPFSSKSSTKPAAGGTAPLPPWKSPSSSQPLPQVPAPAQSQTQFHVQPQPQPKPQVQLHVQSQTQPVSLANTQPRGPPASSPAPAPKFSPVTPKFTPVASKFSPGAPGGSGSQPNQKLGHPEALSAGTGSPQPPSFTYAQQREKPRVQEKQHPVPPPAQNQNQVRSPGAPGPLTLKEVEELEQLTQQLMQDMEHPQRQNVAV
The experiment in a line: ectopic recruitment to mitochondria; Vero cells transiently co-transfected with a zyxin-mito variant (held on the surface of mitochondria by the ActA membrane anchor) and a GFP-Tes variant; fixed cells, immunofluorescence (anti-zyxin or anti-myc) and GFP signal.

The target of experiment [1] is T2, Zyx 51-77-myc-mito (human) (UniProt Q15942).
T2 sequence: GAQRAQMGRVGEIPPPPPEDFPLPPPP
The description is as above.

Experiment [2] concerns the target T3, Zyx 140-380-myc-mito (human) (UniProt Q15942).
T3 sequence: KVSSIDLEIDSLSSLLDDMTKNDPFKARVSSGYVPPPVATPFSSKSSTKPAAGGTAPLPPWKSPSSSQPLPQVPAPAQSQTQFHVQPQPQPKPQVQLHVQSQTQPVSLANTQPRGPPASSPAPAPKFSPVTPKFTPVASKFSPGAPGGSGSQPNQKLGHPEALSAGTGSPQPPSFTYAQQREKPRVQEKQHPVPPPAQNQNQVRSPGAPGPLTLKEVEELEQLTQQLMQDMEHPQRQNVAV
The description is as above.

For experiment [3], the target named is T4, Zyx 51-63-myc-mito (human) (UniProt Q15942).
T4 sequence: GAQRAQMGRVGEI
The experiment is described as above.

For experiment [4], the target named is T5, Zyx 64-77-myc-mito (human) (UniProt Q15942).
T5 sequence: PPPPPEDFPLPPPP
The description is as above.

The target in experiment [5] is T6, Zyx 51-140-myc-mito (human) (UniProt Q15942).
T6 sequence: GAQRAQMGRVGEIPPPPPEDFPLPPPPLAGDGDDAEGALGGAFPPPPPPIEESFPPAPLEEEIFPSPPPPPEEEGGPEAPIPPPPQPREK
The experiment is described as above.

A further experiment addresses T7, Zyx LIM-myc-mito (human) (UniProt Q15942).
T7 sequence: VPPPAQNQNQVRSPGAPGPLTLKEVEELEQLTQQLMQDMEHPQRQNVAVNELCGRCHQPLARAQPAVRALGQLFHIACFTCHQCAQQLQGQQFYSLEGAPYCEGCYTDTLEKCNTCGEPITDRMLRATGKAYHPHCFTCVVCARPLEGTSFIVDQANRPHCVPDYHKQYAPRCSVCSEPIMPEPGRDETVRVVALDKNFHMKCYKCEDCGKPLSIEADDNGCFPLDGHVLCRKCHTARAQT
Described as above.

A further experiment deals with T8, Zyx FL WT-mito (human) (UniProt Q15942).
T8 sequence: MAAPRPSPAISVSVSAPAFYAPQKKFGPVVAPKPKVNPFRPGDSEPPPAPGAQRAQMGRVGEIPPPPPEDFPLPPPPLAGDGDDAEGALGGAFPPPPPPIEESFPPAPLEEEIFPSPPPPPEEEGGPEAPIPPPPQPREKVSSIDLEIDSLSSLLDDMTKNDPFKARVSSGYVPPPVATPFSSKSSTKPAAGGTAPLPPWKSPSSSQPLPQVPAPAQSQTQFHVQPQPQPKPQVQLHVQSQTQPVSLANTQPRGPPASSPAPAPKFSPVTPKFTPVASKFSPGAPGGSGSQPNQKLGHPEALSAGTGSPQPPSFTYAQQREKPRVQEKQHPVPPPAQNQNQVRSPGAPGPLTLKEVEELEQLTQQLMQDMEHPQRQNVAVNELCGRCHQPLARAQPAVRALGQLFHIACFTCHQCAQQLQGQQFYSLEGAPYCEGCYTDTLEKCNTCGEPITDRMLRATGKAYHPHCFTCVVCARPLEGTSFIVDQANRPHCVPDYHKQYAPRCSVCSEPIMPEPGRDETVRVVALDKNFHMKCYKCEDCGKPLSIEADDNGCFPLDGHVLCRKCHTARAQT
The experiment is described as above.

In another experiment the target is T9, GST-Tes LIM1 (UniProt Q9UGI8).
T9 sequence: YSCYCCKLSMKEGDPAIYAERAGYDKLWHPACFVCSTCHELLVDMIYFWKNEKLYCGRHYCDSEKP
The experiment in a line: pull-down; 16 μg purified GST-Tes LIM1 immobilised on Glutathione Sepharose 4B; 200 μg total protein of transfected HeLa extract; NP40 lysis buffer (50 mM Tris pH 7.4, 120 mM NaCl, 0.5% Nonidet P-40, 0.5 mM EDTA), 2 hours at 4°C; Western blot of bound and non-bound fractions (anti-GFP or anti-zyxin); only the target purified. For orientation: In western blotting, separated proteins are transferred to a membrane and probed.

B1: GFP-Tes LIM (domain or fragment, UniProt Q9UGI8 234-421)
chain: YSCYCCKLSMKEGDPAIYAERAGYDKLWHPACFVCSTCHELLVDMIYFWKNEKLYCGRHYCDSEKPRCAGCDELIFSNEYTQAENQNWHLKHFCCFDCDSILAGEIYVMVNDKPVCKPCYVKNHAVVCQGCHNAIDPEVQRVTYNNFSWHASTECFLCSCCSKCLIGQKFMPVEGMVFCSVECKKRMS
For the molecule B1, the binding result with Zyx NT-mito (human) is given as “binds”; in [1], “binds”; in [2], “no binding”; in experiment [3] it was “binds”; in experiment [4] it was “no binding”; in experiment [5] it was “binds”. Also, the binding entry is given as “no binding” with Zyx LIM-myc-mito (human) and “binds” with Zyx FL WT-mito (human).

B2: Tes FL-GFP (natural protein, UniProt Q9UGI8 1-421, looked up)
chain: MDLENKVKKMGLGHEQGFGAPCLKCKEKCEGFELHFWRKICRNCKCGQEEHDVLLSNEEDRKVGKLFEDTKYTTLIAKLKSDGIPMYKRNVMILTNPVAAKKNVSINTVTYEWAPPVQNQALARQYMQMLPKEKQPVAGSEGAQYRKKQLAKQLPAHDQDPSKCHELSPREVKEMEQFVKKYKSEALGVGDVKLPCEMDAQGPKQMNIPGGDRSTPAAVGAMEDKSAEHKRTQYSCYCCKLSMKEGDPAIYAERAGYDKLWHPACFVCSTCHELLVDMIYFWKNEKLYCGRHYCDSEKPRCAGCDELIFSNEYTQAENQNWHLKHFCCFDCDSILAGEIYVMVNDKPVCKPCYVKNHAVVCQGCHNAIDPEVQRVTYNNFSWHASTECFLCSCCSKCLIGQKFMPVEGMVFCSVECKKRMS
Regarding B2, the binding result with Zyx FL WT-mito (human) is recorded as “binds weakly”.

Turning to GAQRAQMGRVGEI (domain or fragment, UniProt Q15942 51-63) [Zyx 51-63-GFP], the binding result with GST-Tes LIM1 is listed as “binds”.

As for GAQRAQMGRAAAA (domain or fragment, UniProt Q15942 51-63) [Zyx 51–63 MT-GFP], in the experiment with GST-Tes LIM1, the binding entry is given as “no binding”.

B3: Zyx FL WT-GFP (protein, UniProt Q15942 1-572)
chain: MAAPRPSPAISVSVSAPAFYAPQKKFGPVVAPKPKVNPFRPGDSEPPPAPGAQRAQMGRVGEIPPPPPEDFPLPPPPLAGDGDDAEGALGGAFPPPPPPIEESFPPAPLEEEIFPSPPPPPEEEGGPEAPIPPPPQPREKVSSIDLEIDSLSSLLDDMTKNDPFKARVSSGYVPPPVATPFSSKSSTKPAAGGTAPLPPWKSPSSSQPLPQVPAPAQSQTQFHVQPQPQPKPQVQLHVQSQTQPVSLANTQPRGPPASSPAPAPKFSPVTPKFTPVASKFSPGAPGGSGSQPNQKLGHPEALSAGTGSPQPPSFTYAQQREKPRVQEKQHPVPPPAQNQNQVRSPGAPGPLTLKEVEELEQLTQQLMQDMEHPQRQNVAVNELCGRCHQPLARAQPAVRALGQLFHIACFTCHQCAQQLQGQQFYSLEGAPYCEGCYTDTLEKCNTCGEPITDRMLRATGKAYHPHCFTCVVCARPLEGTSFIVDQANRPHCVPDYHKQYAPRCSVCSEPIMPEPGRDETVRVVALDKNFHMKCYKCEDCGKPLSIEADDNGCFPLDGHVLCRKCHTARAQT
Turning to B3, the binding result in the experiment with GST-Tes LIM1 is “binds”.

B4: Zyx FL MT-GFP (protein, UniProt Q15942 1-572)
chain: MAAPRPSPAISVSVSAPAFYAPQKKFGPVVAPKPKVNPFRPGDSEPPPAPGAQRAQMGRAAAAPPPPPEDFPLPPPPLAGDGDDAEGALGGAFPPPPPPIEESFPPAPLEEEIFPSPPPPPEEEGGPEAPIPPPPQPREKVSSIDLEIDSLSSLLDDMTKNDPFKARVSSGYVPPPVATPFSSKSSTKPAAGGTAPLPPWKSPSSSQPLPQVPAPAQSQTQFHVQPQPQPKPQVQLHVQSQTQPVSLANTQPRGPPASSPAPAPKFSPVTPKFTPVASKFSPGAPGGSGSQPNQKLGHPEALSAGTGSPQPPSFTYAQQREKPRVQEKQHPVPPPAQNQNQVRSPGAPGPLTLKEVEELEQLTQQLMQDMEHPQRQNVAVNELCGRCHQPLARAQPAVRALGQLFHIACFTCHQCAQQLQGQQFYSLEGAPYCEGCYTDTLEKCNTCGEPITDRMLRATGKAYHPHCFTCVVCARPLEGTSFIVDQANRPHCVPDYHKQYAPRCSVCSEPIMPEPGRDETVRVVALDKNFHMKCYKCEDCGKPLSIEADDNGCFPLDGHVLCRKCHTARAQT
On to B4, for which the binding entry with GST-Tes LIM1 is “no binding”.

B5: endogenous zyxin (protein, UniProt Q15942 1-572)
chain: MAAPRPSPAISVSVSAPAFYAPQKKFGPVVAPKPKVNPFRPGDSEPPPAPGAQRAQMGRVGEIPPPPPEDFPLPPPPLAGDGDDAEGALGGAFPPPPPPIEESFPPAPLEEEIFPSPPPPPEEEGGPEAPIPPPPQPREKVSSIDLEIDSLSSLLDDMTKNDPFKARVSSGYVPPPVATPFSSKSSTKPAAGGTAPLPPWKSPSSSQPLPQVPAPAQSQTQFHVQPQPQPKPQVQLHVQSQTQPVSLANTQPRGPPASSPAPAPKFSPVTPKFTPVASKFSPGAPGGSGSQPNQKLGHPEALSAGTGSPQPPSFTYAQQREKPRVQEKQHPVPPPAQNQNQVRSPGAPGPLTLKEVEELEQLTQQLMQDMEHPQRQNVAVNELCGRCHQPLARAQPAVRALGQLFHIACFTCHQCAQQLQGQQFYSLEGAPYCEGCYTDTLEKCNTCGEPITDRMLRATGKAYHPHCFTCVVCARPLEGTSFIVDQANRPHCVPDYHKQYAPRCSVCSEPIMPEPGRDETVRVVALDKNFHMKCYKCEDCGKPLSIEADDNGCFPLDGHVLCRKCHTARAQT
Turning to B5, the binding result with GST-Tes LIM1 was “binds”.
